Source: the supplement of paper PMC8047034
Counter-ions that a name gives are not always drawn. The list shows a part of the results. Most values come without repeats; read them as rough.

What was measured:
OVCAR4 = assay: log2 surviving fraction (library drug vs vehicle, or drug + carboplatin vs carboplatin alone; relative to plate median); ovarian cancer lines: OVCAR4 is platinum-sensitive and Ov4Carbo platinum-resistant; higher = more cell survival; settings: library drug concentration 10 µM, 7 days
Ov4Carbo = assay: as above; settings: library drug concentration 10 µM, 7 days

| SMILES | log2 surviving fraction (OVCAR4; carboplatin co-treatment 0 µM) | log2 surviving fraction (OVCAR4; carboplatin co-treatment 5 µM) | log2 surviving fraction (Ov4Carbo; carboplatin co-treatment 0 µM) | log2 surviving fraction (Ov4Carbo; carboplatin co-treatment 5 µM) |
| --- | --- | --- | --- | --- |
| CN1CCC(OC(c2ccccc2)c2ccccc2)CC1 [Diphenylpyraline HCl] | -0.496 | 0.0264 | -1.77 | -0.367 |
| CNC(=O)Oc1ccc2c(c1)[C@]1(C)CCN(C)[C@@H]1N2C [Physostigmine Salicylate] | -0.537 | 0.219 | 0.75 | 0.668 |
| N#C[C@@H]1CCCN1C(=O)CNC12CC3CC(CC(O)(C3)C1)C2 [Vildagliptin (LAF-237)] | 0.841 | 0.123 | 0.834 | 0.158 |
| C#C[C@]1(O)CC[C@H]2[C@@H]3CCC4=CC(=O)CC[C@@H]4[C@H]3CC[C@@]21C [norethindrone] | 0.0755 | 0.279 | 0.222 | 0.478 |
| Cc1cc(C#N)cc(C)c1Oc1nc(Nc2ccc(C#N)cc2)nc(N)c1Br [Etravirine (TMC125)] | -4.47 | -3.02 | -2.97 | -1.95 |
| C[C@@H]1CC(=O)NN=C1c1ccc(NN=C(C#N)C#N)cc1 [Levosimendan] | -0.836 | -0.838 | -0.369 | 0.239 |
| CC1(C)[C@@H](O[C@H]2O[C@H](C(=O)O)[C@@H](O)[C@H](O)[C@H]2O[C@@H]2O[C@H](C(=O)O)[C@@H](O)[C@H](O)[C@H]2O)CC[C@]2(C)[C@H]3C(=O)C=C4[C@@H]5C[C@@](C)(C(=O)O)CC[C@]5(C)CC[C@@]4(C)[C@]3(C)CC[C@@H]12 [Ammonium Glycyrrhizinate (AMGZ)] | -0.591 | 0.0643 | -0.354 | -0.63 |
| O=S(=O)(O)c1cc(O)ccc1O [Ethamsylate] | -0.129 | 0.599 | 0.733 | 0.877 |
| Nc1nc2c(ncn2COC(CO)CO)c(=O)[nH]1 [Ganciclovir] | 0.155 | 0.235 | -0.163 | 0.17 |
| COc1cc2c(cc1OC)C(=O)C(CC1CCN(Cc3ccccc3)CC1)C2 (centres undefined) [Donepezil HCl (Aricept)] | -0.236 | 0.398 | -0.364 | -0.0186 |
| Cc1cc(C(C#N)c2ccc(Cl)cc2)c(Cl)cc1NC(=O)c1cc(I)cc(I)c1O (centres undefined) [Closantel] | 0.11 | -0.776 | 0.995 | 0.304 |
| CCCCCCCCCCOc1cc2c(O)c(C(=O)OCC)cnc2cc1OCC [Decoquinate] | 1 | 0.895 | 0.877 | 0.271 |
| O=S(=O)(O)NC1CCCCC1 [Cyclamic  acid] | -0.0496 | 0.0879 | 0.865 | 0.509 |
| C=CC[C@]1(O)CC[C@H]2[C@@H]3CCC4=CC(=O)CCC4=C3C=C[C@@]21C [Altrenogest] | -0.823 | -0.839 | -2.18 | -1.72 |
| Cc1cc(C(C)(C)C)c(O)c(C)c1CC1=NCCN1 [Oxymetazoline hydrochloride] | -0.378 | -0.155 | 0.517 | 0.435 |
| Nc1nc2[nH]cnc2c(=S)[nH]1 [Thioguanine] | -5.44 | -4.63 | -6.39 | -5.96 |
| CNCC(=O)c1ccc(O)c(O)c1 [Adrenalone HCl] | -0.84 | -0.703 | -0.981 | -1.18 |
| CN(C)CCCN1c2ccccc2Sc2ccc(C(F)(F)F)cc21 [Triflupromazine HCl] | -0.576 | -0.886 | -3.18 | -1.74 |
| Clc1ccccc1C(c1ccccc1)(c1ccccc1)n1ccnc1 [Clotrimazole (Canesten)] | -0.983 | -1.64 | -1.01 | -1.78 |

| SMILES | log2 surviving fraction (OVCAR4; carboplatin co-treatment 0 µM) | log2 surviving fraction (OVCAR4; carboplatin co-treatment 5 µM) | log2 surviving fraction (Ov4Carbo; carboplatin co-treatment 0 µM) | log2 surviving fraction (Ov4Carbo; carboplatin co-treatment 5 µM) |
| --- | --- | --- | --- | --- |
| NCCCCCC(=O)O [Aminocaproic acid (Amicar)] | -8.08 | 0.458 | 0.781 | 0.0123 |
| Cc1ccccc1C(OCCN(C)C)c1ccccc1 (centres undefined) [Orphenadrine citrate (Norflex)] | 0.994 | -1.58 | -0.155 | 0.718 |
| CCCCC(=O)N(Cc1ccc(-c2ccccc2-c2nnn[nH]2)cc1)[C@H](C(=O)O)C(C)C [Valsartan (Diovan)] | 0.524 | -0.13 | 0.433 | 0.8 |
| CC(C(=O)O)c1cccc(C(=O)c2ccccc2)c1 (centres undefined) [Ketoprofen (Actron)] | 1.76 | 0.681 | -1.48 | 0.418 |
| Oc1c(Cl)cc(Cl)c2cccnc12 [Chloroxine] | -0.626 | -3.64 | 0.12 | -4.17 |
| CS(=O)(=O)Nc1ccc([N+](=O)[O-])cc1Oc1ccccc1 [Nimesulide] | -0.107 | 0.316 | -1.28 | 0.299 |
| CCN[C@H]1C[C@H](C)S(=O)(=O)c2sc(S(N)(=O)=O)cc21 [Dorzolamide HCL] | -1.01 | -0.55 | -1.51 | -1.09 |
| CN(CCOc1ccc(CC2SC(=O)NC2=O)cc1)c1ccccn1 (centres undefined) [Rosiglitazone maleate] | 0.482 | 0.37 | 0.852 | 0.475 |
| CS(=O)(=O)c1ccc(C2=C(c3ccccc3)C(=O)OC2)cc1 [Rofecoxib (Vioxx)] | 0.336 | -0.456 | -0.405 | -0.0533 |
| CC(C(=O)O)c1ccc2c(c1)[nH]c1ccc(Cl)cc12 (centres undefined) [Carprofen] | 0.615 | 0.576 | 0.654 | 1.54 |
| O=C(O)C1=CO[C@@H](O[C@@H]2O[C@H](CO)[C@@H](O)[C@H](O)[C@H]2O)[C@@H]2C(CO)=CC[C@H]12 [Geniposidic acid] | 0.956 | 1.01 | 1.51 | 0.7 |
| CN(C)CCN(Cc1cccs1)c1ccccn1 [Methapyrilene HCl] | -0.183 | 1.24 | -0.0474 | -0.975 |
| CCN(CC)CCOC(=O)c1ccc(N)cc1 [Procaine (Novocaine) HCl] | 0.877 | 0.313 | 0.771 | 0.493 |
| COc1c(N2CCNC(C)C2)c(F)cc2c(=O)c(C(=O)O)cn(C3CC3)c12 (centres undefined) [Gatifloxacin] | 0.566 | 0.0638 | -1.16 | -1.36 |
| CN(C)[C@@H]1C(O)=C(C(N)=O)C(=O)[C@@]2(O)C(O)=C3C(=O)c4c(O)cccc4[C@@](C)(O)[C@H]3[C@H](O)[C@@H]12 [Oxytetracycline (Terramycin)] | 1.03 | 0.641 | -0.0462 | 0.00112 |
| CN1CCCC(n2nc(Cc3ccc(Cl)cc3)c3ccccc3c2=O)CC1 (centres undefined) [Azelastine hydrochloride (Astelin)] | -1.13 | -0.925 | -1.89 | -1.75 |
| C[N+](C)(C)CC(O)CC(=O)[O-] (racemic) [DL-Carnitine hydrochloride] | -0.625 | -0.124 | -0.135 | -0.642 |
| CCc1cc(C(N)=S)ccn1 [Ethionamide] | 0.0598 | -0.442 | 0.0266 | -0.146 |
| CCC(C)(C)c1ccc(CC(C)CN2C[C@@H](C)O[C@@H](C)C2)cc1 (some centres undefined) [Amorolfine Hydrochloride] | 0.278 | 0.619 | 0.0285 | 0.119 |

| SMILES | log2 surviving fraction (OVCAR4; carboplatin co-treatment 0 µM) | log2 surviving fraction (OVCAR4; carboplatin co-treatment 5 µM) | log2 surviving fraction (Ov4Carbo; carboplatin co-treatment 0 µM) | log2 surviving fraction (Ov4Carbo; carboplatin co-treatment 5 µM) |
| --- | --- | --- | --- | --- |
| CCCCCCCCCCCCCCCC[N+](C)(C)C [Cetrimonium Bromide] | -7.08 | -7 | -7.14 | -6.48 |
| CCC1(c2ccccc2)C(=O)NCNC1=O [Primidone (Mysoline)] | 0.0669 | 0.792 | -0.776 | 0.0139 |
| O=C1N=C(O)NC1(c1ccccc1)c1ccccc1 [Phenytoin sodium (Dilantin)] | 0.0932 | 0.809 | 0.423 | 0.621 |
| CN1[C@@H]2CC[C@H]1C[C@@H](OC(=O)C(CO)c1ccccc1)C2 (some centres undefined) [Atropine] | -1.42 | -0.929 | -0.528 | -1.68 |
| CC(=O)CCCCn1c(=O)c2c(ncn2C)n(C)c1=O [Pentoxifylline] | -0.0884 | -0.484 | -0.281 | -0.0585 |
| O.O=[Si]=O.O=[Si]=O.O=[Si]=O.O=[Si]=O.[O]=[Mg].[O]=[Mg].[O]=[Mg] | 0.645 | 1.22 | 0.329 | 0.548 |
| C[C@@H]1[C@H](O)[C@@H](C)/C=C/C=C/C=C/C=C/C=C/C=C/C=C/[C@H](O[C@@H]2O[C@H](C)[C@@H](O)[C@H](N)[C@@H]2O)C[C@@H]2O[C@](O)(C[C@@H](O)C[C@@H](O)[C@H](O)CC[C@@H](O)C[C@@H](O)CC(=O)O[C@H]1C)C[C@H](O)[C@H]2C(=O)O [Amphotericin B (Abelcet)] | 0.851 | 0.151 | 0.568 | -0.471 |
| COc1cc(/C=C/C(=O)N2CCN(CC(=O)N3CCCC3)CC2)cc(OC)c1OC [Cinepazide maleate] | 0.566 | -0.315 | -0.178 | 0.254 |
| Cc1cccc(C)c1OCC(=O)N[C@@H](Cc1ccccc1)[C@@H](O)C[C@H](Cc1ccccc1)NC(=O)[C@H](C(C)C)N1CCCNC1=O [Lopinavir (ABT-378)] | -0.783 | -0.496 | -8.82 | -1.95 |
| Cn1c(=O)c2[nH]cnc2n(C)c1=O [Aminophylline (Truphylline)] | -9.2 | 0.345 | 0.745 | 0.372 |
| CC(C)NCC(O)COc1cccc2ccccc12 (centres undefined) [Propranolol HCl] | -0.0592 | -0.529 | -0.783 | -1.39 |
| Nc1ccn([C@@H]2O[C@H](CO)[C@@H](O)C2(F)F)c(=O)n1 [Gemcitabine (Gemzar)] | -9.74 | -6.74 | -7.69 | -7.47 |
| Cc1cnc(NC(=O)C2=C(O)c3ccccc3S(=O)(=O)N2C)s1 [Meloxicam (Mobic)] | 0.779 | 0.42 | 0.0599 | 0.739 |
| CN1[C@@H]2C[C@@H](OC(=O)[C@H](CO)c3ccccc3)C[C@H]1[C@@H]1O[C@@H]12 [Scopolamine hydrobromide] | -0.319 | 0.0417 | -0.397 | 0.62 |
| CC(COc1ccccc1)N(CCCl)Cc1ccccc1 (centres undefined) [Phenoxybenzamine HCl] | 0.271 | 0.242 | -0.0581 | -0.168 |
| COc1cc2c(cc1OC)CC(=O)N(CCCN(C)C[C@H]1Cc3cc(OC)c(OC)cc31)CC2 [Ivabradine HCl (Procoralan)] | 1.13 | 0.277 | 1.05 | 0.129 |
| CNCCc1ccccn1 [Betahistine 2HCl] | 0.243 | -0.031 | -0.734 | -0.59 |
| CO[C@H]1/C=C/O[C@@]2(C)Oc3c(C)c(O)c4c(O)c(c(/C=N/N5CCN(C6CCCC6)CC5)c(O)c4c3C2=O)NC(=O)/C(C)=C\C=C\[C@H](C)[C@H](O)[C@@H](C)[C@@H](O)[C@@H](C)[C@H](OC(C)=O)[C@@H]1C [Rifapentine (Priftin)] | -1.03 | -1.17 | -1.27 | -1.14 |
